The results in this text go back to the supplement of paper PMC4723716.

SMILES strings stand for the structures. ± gives the uncertainty stated by the source. Over roughly 9,900 compounds, “viability index relative to DMSO control” has its median near 1; the lowest 2% begin near 0.85. The list shows a part of the results.

The test system of the experiment is Plasmodium falciparum NF54 stage V gametocytes. Description: viability index relative to DMSO control (fraction); higher = less gametocyte killing. As to conditions: 2.5 µM, library set: Broad Institute DOS, incubation time: 72 h. The gist of the method: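 Stage V gametocytes of P. falciparum NF54 were held in serum-free screening medium at 0.75% gametocytemia and 1.25% hematocrit, 10 µl per well of a 1,536-well plate, and exposed to compound at 2.5 µM for 72 hr at 37°C under low oxygen. A 3 µl mix of 2.5 µM MitoTracker Red CMXRos with 0.13% saponin was then added for one to two hours, after which one field per well was imaged and red particles of 20–70 µm2 were counted. The viability index equals this count divided by the plate mean from wells given solvent alone.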
The molecule `C[C@H]1CN([C@@H](C)CO)C(=O)c2cccc(NS(=O)(=O)c3cn(C)cn3)c2O[C@H]1CN(C)Cc1ccc(Oc2ccccc2)cc1` showed a viability index of 1.09 ± 0.081.
With `CO[C@@H]1CN(C)C(=O)c2cc(NC(C)=O)ccc2OC[C@@H](C)N(C(=O)Cc2ccccn2)C[C@H]1C` the figure was 1.04 ± 0.12.
In turn, `CN1C(=O)c2cc(NC(=O)Nc3ccccc3Cl)ccc2OC[C@@H]2O[C@H](CC(=O)NCCCN3CCOCC3)CC[C@@H]21` yielded a viability index of 1.11 ± 0.013.
The result for `O=C(C1CCC1)N1CCCCN2[C@@H](CO)[C@H](c3ccc(-c4ccncc4)cc3)[C@@H]2C1` reads 1.03 ± 0.079; that for `C/C=C/c1ccc([C@@H]2[C@H](CO)N[C@H]2CN(CC(C)C)C(=O)c2ccccn2)cc1`, 1.01 ± 0.019.
The result for `COc1cccc(S(=O)(=O)N2C[C@H](O)COC[C@H]3O[C@@H](CC(=O)NCCCN4CCOCC4)CC[C@@H]32)c1` reads 1.02 ± 0.053; that for `C[C@H](NC(=O)C[C@H]1CC[C@H]2[C@@H](COC[C@@H](O)CN2Cc2ccc(C(F)(F)F)cc2)O1)c1ccccc1`, 1.02 ± 0.06.
The result for `COCC(=O)N1[C@@H](CO)[C@@H](c2ccccc2)C12CN(Cc1cc(F)ccc1F)C2` reads 0.967 ± 0.026; that for `CCS(=O)(=O)N1C[C@@]2(C1)CN(Cc1ccccc1F)[C@@H](CO)c1[nH]c3cc(OC)ccc3c21`, 0.939 ± 0.055.
In turn, `CCCN1[C@@H]2c3ccc(-c4ccccc4)c(=O)n3C[C@H]1[C@H](CO)[C@H]2C(=O)NCC` showed a viability index of 1.064 ± 0.0077.
The result for `O=C(NCC[C@@H]1CC[C@@H](NC(=O)c2ccncc2)[C@H](CO)O1)Nc1ccc(Cl)cc1` reads 1.05 ± 0.026.
With `C[C@@H]1CN([C@H](C)CO)S(=O)(=O)c2ccc(C#Cc3cccc(F)c3)cc2O[C@H]1CN(C)S(=O)(=O)c1cn(C)cn1`, the viability index came to 0.803 ± 0.052.
In turn, `CCS(=O)(=O)N1CC2(C1)[C@H](c1ccccc1)[C@H](CO)N2Cc1ccc(F)cc1` displayed a viability index of 1.08 ± 0.061.
With `COc1cccc(NC(=O)N2CC(=O)N3[C@@H](CO)[C@H](c4ccc(C#CCC5CCCC5)cc4)[C@@H]3C2)c1` the figure was 1.03 ± 0.058; with `COc1ccc(C#Cc2ccc([C@H]3[C@H]4CN(C(=O)c5ccc(F)cc5)CC(=O)N4[C@H]3CO)cc2)cc1`, 1 ± 0.082; with `C/C=C/c1cccc(-c2nc(C(=O)NCCN3CCCCC3)cc3c2[C@H](CCO)N([S@@](=O)C(C)(C)C)C3)c1`, 1.04 ± 0.051.
The result for `CNC[C@@H]1Oc2ccc(NS(=O)(=O)c3ccc(OC)cc3)cc2C(=O)N([C@@H](C)CO)C[C@H]1C` reads 0.994 ± 0.019; that for `C[C@@H]1CCCCO[C@@H](CN(C)C(=O)c2ccncc2)[C@H](C)CN([C@@H](C)CO)C(=O)c2cc(NC(=O)CCC(F)(F)F)ccc2O1`, 1.066 ± 0.0069; that for `CN(C)C(=O)c1ccc(-c2cccc(-c3nc(C(=O)NC4CCCCC4)cc4c3[C@H](CCO)N([S@@](=O)C(C)(C)C)C4)c2)cc1`, 1.01 ± 0.046.
In turn, `CCCC(=O)Nc1ccc2c(c1)OC[C@@H](C)N(C(=O)c1cccnc1)C[C@H](C)[C@@H](OC)CN(C)C2=O` had a viability index of 1.09 ± 0.05.
The result for `CCCN(C)C[C@@H]1Oc2cc(/C=C/c3ccccc3)ccc2S(=O)(=O)N([C@@H](C)CO)C[C@H]1C` reads 1.102 ± 0.0059; that for `CO[C@@H]1CN(C)C(=O)c2cc(NS(C)(=O)=O)ccc2OC[C@H](C)N(C(=O)C2CCOCC2)C[C@H]1C`, 1.16 ± 0.02; that for `COc1ccc(NC(=O)N(C)C[C@@H]2Oc3c(NC(=O)CCCCCC(=O)Nc4ccccc4N)cccc3C(=O)N([C@@H](C)CO)C[C@H]2C)cc1`, 1.07 ± 0.091.
With `O=C(Cc1ccncc1)NCC[C@H]1CC[C@H](NS(=O)(=O)c2ccccc2Cl)[C@H](CO)O1` the figure was 1.09 ± 0.031; with `O=C(C[C@H]1CC[C@H]2[C@@H](COC[C@H](O)CN2Cc2nccs2)O1)N1CCC(Cc2ccccc2)CC1`, 1.03 ± 0.078; with `COc1ccc2c3c([C@H](CO)NC[C@]33CN(Cc4ccc(F)cc4)C3)n(C)c2c1`, 0.841 ± 0.014.
The result for `O=C([C@@H]1[C@@H](CO)[C@@H]2Cn3c(cccc3=O)[C@H]1N2)N1CCc2ccccc2C1` reads 1.06 ± 0.056.
With `COc1ccccc1C#Cc1ccc2c(c1)[C@@H]1NCC[C@@H]1[C@H](CO)N2`, the viability index was 1.01 ± 0.016.
Molecule `C[C@H]1CN([C@@H](C)CO)C(=O)c2cc(NC(=O)Nc3ccccc3)ccc2O[C@H]1CN(C)Cc1ccccc1` gave a viability index of 1.092 ± 0.0056.
With `O=C(C[C@H]1CC[C@@H]2[C@H](COC[C@H](O)CN2C(=O)c2cc(Cl)cc(Cl)c2)O1)N1CCc2ccccc2C1` the figure was 0.939 ± 0.025; with `O=C1CNC[C@H]2[C@@H](c3ccc(C4=CCCC4)cc3)[C@H](CO)N12`, 1.06 ± 0.14.
With `O=C(c1cccnc1)N1CC(=O)N2[C@H](CO)[C@@H](c3ccc(-c4ccccc4F)cc3)[C@H]2C1` the figure was 0.983 ± 0.011.
The result for `COc1ccc(-c2ccc([C@@H]3[C@@H](CO)N4C(=O)CN(C(=O)Cc5ccccn5)C[C@H]34)cc2)cc1` reads 1.02 ± 0.012; that for `C[C@@H]1CCCCO[C@@H](CN(C)S(=O)(=O)c2cn(C)cn2)[C@H](C)CN([C@H](C)CO)C(=O)c2cc(NC(=O)Nc3cccc4ccccc34)ccc2O1`, 1.01 ± 0.077; that for `CN(C)CC(=O)N1[C@H](C#N)[C@@H](c2ccc(-c3cccc(C(=O)N(C)C)c3)cc2)[C@@H]1CO`, 1.14 ± 0.038.
Regarding `CCC(=O)N1[C@H](C#N)[C@H](c2ccccc2-c2ccccc2)[C@@H]1CO`, the viability index is 1.16 ± 0.13.
The result for `CN1C[C@@H](O)COC[C@H]2O[C@H](CC(=O)NC3CCCC3)CC[C@@H]21` reads 1.05 ± 0.064; that for `C[C@H](CO)N1C[C@H](C)[C@@H](CN(C)C(=O)Nc2ccccc2)Oc2ccc(NS(=O)(=O)c3ccc(F)cc3)cc2C1=O`, 0.973 ± 0.037.
With `CO[C@@H]1CN(C)C(=O)c2cc(NS(=O)(=O)c3cccc(Cl)c3)ccc2OC[C@H](C)NC[C@@H]1C` the figure was 0.978 ± 0.07.
With `N[C@@H]1CC[C@@H](CCn2cc(C3(O)CCCC3)nn2)O[C@H]1CO` the figure was 0.964 ± 0.091.
The molecule `CN(C)CC(=O)N1[C@H](CO)[C@H](c2ccccc2-c2ccccc2F)[C@@H]1C#N` came in with a viability index of 1.19 ± 0.06.
Consider `CC(C)CC#Cc1ccc([C@H]2[C@@H](CO)N3C(=O)CN(S(=O)(=O)c4cccc(F)c4)C[C@@H]23)cc1`, for which the viability index is 0.964 ± 0.022.
In turn, `CCCNC(=O)N1[C@H](C#N)[C@@H](c2ccccc2C2=CCCCC2)[C@@H]1CO` yielded a viability index of 1 ± 0.056.
With `Cc1ccccc1-c1ccc([C@@H]2[C@@H]3CN(S(=O)(=O)Cc4ccccc4)C[C@H]2N3)cc1` the figure was 0.854 ± 0.034; with `CCNC(=O)c1cc2c(c(-c3cccc(-c4cncnc4)c3)n1)[C@@H](CCO)N(C(C)=O)C2`, 1.085 ± 0.0084; with `COc1cccc(CNC(=O)C[C@@H]2CC[C@@H]3[C@H](COc4ccc(NS(=O)(=O)c5ccccc5F)cc4C(=O)N3C)O2)c1`, 0.97 ± 0.047.
The molecule `O=C(Nc1ccccc1F)N1[C@@H]2CNC[C@H]1[C@@H]2c1ccc(-c2ccncc2)cc1` returned a viability index of 1.17 ± 0.014.
The result for `COc1ccc2c3c([nH]c2c1)[C@@H](CO)N(Cc1cccc(F)c1)C[C@]31CCN(CC1)C(C)=O` reads 0.952 ± 0.083; that for `CCS(=O)(=O)NCC[C@@H]1CC[C@H](NC(=O)Nc2cc(Cl)cc(Cl)c2)[C@@H](CO)O1`, 1.2 ± 0.082; that for `CCCN(C)C[C@H]1OCCCC[C@@H](C)Oc2ccc(NC(=O)CCCN(C)C)cc2C(=O)N([C@@H](C)CO)C[C@@H]1C`, 1.17 ± 0.058.
For `COc1ccccc1S(=O)(=O)N[C@@H]1C=C[C@@H](CC(=O)N2CCOCC2)O[C@@H]1CO`, the viability index is 1.11 ± 0.068.
The result for `CN1C(=O)c2cc(NC(=O)Cc3cccs3)ccc2OC[C@H]2O[C@@H](CC(=O)NCCCN3CCOCC3)CC[C@H]21` reads 1.06 ± 0.15; that for `Cc1ccc(S(=O)(=O)Nc2ccc3c(c2)C(=O)N([C@H](C)CO)C[C@@H](C)[C@@H](CN(C)S(=O)(=O)c2cccs2)OCCCC[C@H](C)O3)cc1`, 1.08 ± 0.093.
The result for `C[C@@H]1CN([C@H](C)CO)C(=O)c2cccc(NS(=O)(=O)c3cn(C)cn3)c2O[C@@H]1CN(C)Cc1ccc(Oc2ccccc2)cc1` reads 1 ± 0.11; that for `COc1ccccc1-c1ccccc1[C@H]1[C@H](C#N)N(C(=O)CN(C)C)[C@H]1CO`, 1.01 ± 0.1; that for `COc1ccc(NC(=O)N2C[C@@]3(C2)CN([C@H](CO)c2[nH]c4cc(OC)ccc4c32)C(C)=O)cc1`, 0.924 ± 0.068.
With `COCC(=O)N1CC(=O)N2[C@@H](CO)[C@@H](c3ccc(-c4ccccc4F)cc3)[C@@H]2C1` the figure was 1.01 ± 0.045; with `CN1C(=O)c2cc(NS(=O)(=O)c3cccc(F)c3)ccc2OC[C@@H]2O[C@@H](CC(=O)N3CCc4ccccc4C3)CC[C@H]21`, 0.993 ± 0.055.
The molecule `C[C@@H]1CN([C@@H](C)CO)C(=O)c2cc(NC(=O)CCC(F)(F)F)ccc2O[C@@H](C)CCCCO[C@@H]1CN(C)C(=O)c1ccncc1` gave a viability index of 1.03 ± 0.061.
In turn, `Cc1ccc(-c2ccccc2[C@H]2[C@@H](C#N)N(c3ncc(-c4ccccc4)s3)[C@H]2CO)cc1` returned a viability index of 0.985 ± 0.14.
As to `CO[C@H]1CN(C)C(=O)c2ccc(NC(=O)c3ccno3)cc2OC[C@@H](C)N(S(C)(=O)=O)C[C@H]1C`, the viability index was found to be 1.12 ± 0.052.
With `COCC(=O)N1[C@H](CO)[C@@H](c2ccc(C#Cc3ccccc3F)cc2)[C@@H]1C#N` the figure was 1.11 ± 0.068.
The result for `COc1ccccc1NC(=O)N[C@@H]1CC[C@@H](CCNS(=O)(=O)c2ccc(Cl)cc2)O[C@@H]1CO` reads 0.913 ± 0.093; that for `C[C@@H]1CN([C@H](C)CO)C(=O)c2cc(NC(=O)NC3CCCCC3)ccc2O[C@@H](C)CCCCO[C@H]1CN(C)S(C)(=O)=O`, 1.123 ± 0.01.
`C[C@H]1CN([C@@H](C)CO)S(=O)(=O)c2ccc(C#Cc3ccccc3F)cc2O[C@@H]1CN(C)C(=O)Cc1cccnc1` showed a viability index of 0.94 ± 0.15.
The result for `COc1ccc2c3c([C@H](CO)N(Cc4ccccc4OC)C[C@]33CN(C)C3)n(C)c2c1` reads 0.978 ± 0.012; that for `O=C(C[C@@H]1C[C@@H]2c3cc(NC(=O)C4CCOCC4)ccc3O[C@@H]2[C@@H](CO)O1)NCc1cccnc1`, 0.983 ± 0.039.
With `CNC(=O)C[C@H]1CC[C@@H]2[C@H](COc3ccc(NC(=O)c4ccccc4F)cc3C(=O)N2C)O1` the figure was 1.08 ± 0.12; with `COc1ccc(NC(=O)N(C)C[C@H]2Oc3ccc(NC(=O)Nc4cccc5ccccc45)cc3CC(=O)N([C@H](C)CO)C[C@H]2C)cc1`, 0.98 ± 0.014; with `O=C(C[C@H]1CC[C@@H](NS(=O)(=O)c2ccccc2F)[C@@H](CO)O1)NCCCN1CCOCC1`, 0.984 ± 0.15.
